Experimental data from the supplement of paper PMC8728848.
Some of the results follow.

Columns and labels:
Assay in all cases: glycan array binding signal (z-score within array); higher = stronger binding
Details in all cases: glycan notation: IUPAC condensed, linker removed
[1] = target: Gal(b1-4)GlcNAc(b1-6)[Gal(b1-3)]GalNAc
Method in brief: (§1)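 The binding signal is a Z-score computed within each array and averaged over linkers. Arrays of the same protein sequence at different concentrations or buffers were also averaged together. Data originate from 3228 arrays in the Consortium for Functional Glycomics database, kept only where the protein sequence was available.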

[2] = target: Gal(b1-6)Gal
Method in brief: as §1

[3] = target: Gal3S(b1-3)GalNAc
Method in brief: as §1

[4] = target: Gal3S(b1-3)GlcNAc
Method in brief: as §1

[5] = target: Gal3S(b1-3)[Fuc(a1-4)]GlcNAc
Method in brief: as §1

[6] = target: Gal3S(b1-4)Glc
Method in brief: as §1

[7] = target: Gal3S(b1-4)Glc6S
Method in brief: as §1

[8] = target: Gal3S(b1-4)GlcNAc
Method in brief: as §1

[9] = target: Gal3S(b1-4)GlcNAc6S
Method in brief: as §1

[10] = target: Gal3S(b1-4)[Fuc(a1-3)]Glc
Method in brief: as §1

[11] = target: Gal3S(b1-4)[Fuc(a1-3)]Glc6S
Method in brief: as §1

[12] = target: Gal3S4S(b1-4)GlcNAc
Method in brief: as §1

[13] = target: Gal3S6S(b1-4)GlcNAc
Method in brief: as §1

[14] = target: Gal3S6S(b1-4)GlcNAc6S
Method in brief: as §1

[15] = target: Gal4S(b1-4)GlcNAc
Method in brief: as §1

[16] = target: Gal4S6S(b1-4)GlcNAc
Method in brief: as §1

[17] = target: Gal6S(b1-3)GlcNAc
Method in brief: as §1

[18] = target: Gal6S(b1-3)GlcNAc6S
Method in brief: as §1

[19] = target: Gal6S(b1-4)Glc
Method in brief: as §1

[20] = target: Gal6S(b1-4)Glc6S
Method in brief: as §1

[21] = target: Gal6S(b1-4)GlcNAc
Method in brief: as §1

[22] = target: Gal6S(b1-4)GlcNAc6S
Method in brief: as §1

[23] = target: GalNAc(a1-3)Gal
Method in brief: as §1

[24] = target: GalNAc(a1-3)GalNAc
Method in brief: as §1

[25] = target: GalNAc(a1-3)GalNAc(a1-3)Gal(a1-4)Gal(b1-4)GlcNAc
Method in brief: as §1

[26] = target: GalNAc(a1-3)GalNAc(b1-3)Gal(a1-4)Gal(b1-4)Glc
Method in brief: as §1

[27] = target: GalNAc(b1-3)Gal
Method in brief: as §1

[28] = target: GalNAc(b1-3)Gal(a1-4)Gal(b1-4)GlcNAc
Method in brief: as §1

[29] = target: GalNAc(b1-3)Gal(a1-4)Gal(b1-4)GlcNAc(b1-3)Gal(b1-4)Glc
Method in brief: as §1

[30] = target: GalNAc(b1-3)Gal(a1-6)Gal(b1-4)Glc
Method in brief: as §1

[31] = target: GalNAc(b1-3)GalNAc
Method in brief: as §1

[32] = target: GalNAc(b1-4)GlcNAc
Method in brief: as §1

[33] = target: GalNAc(b1-4)GlcNAc(b1-2)Man(a1-3)[GalNAc(b1-4)GlcNAc(b1-2)Man(a1-6)]Man(b1-4)GlcNAc(b1-4)GlcNAc
Method in brief: as §1

[34] = target: GalNAc(b1-6)GalNAc
Method in brief: as §1

[35] = target: Glc(a1-4)Glc
Method in brief: as §1

[36] = target: Glc(a1-6)Glc(a1-6)Glc
Method in brief: as §1

[37] = target: Glc(b1-4)Glc
Method in brief: as §1

[38] = target: Glc(b1-6)Glc
Method in brief: as §1

[39] = target: GlcA(b1-3)Gal
Method in brief: as §1

[40] = target: GlcA(b1-3)GlcNAc
Method in brief: as §1

[41] = target: GlcA(b1-6)Gal
Method in brief: as §1

[42] = target: GlcNAc(a1-3)Gal(b1-4)GlcNAc
Method in brief: as §1

[43] = target: GlcNAc(a1-4)Gal(b1-3)GlcNAc
Method in brief: as §1

[44] = target: GlcNAc(a1-4)Gal(b1-4)GalNAc
Method in brief: as §1

[45] = target: GlcNAc(a1-4)Gal(b1-4)GlcNAc
Method in brief: as §1

B1: Gal 2 (Canis lupus) (protein)
chain: MSGKFEVMNMDMKLGGTLKIKGKIAGDADGFVINLGQGSDKLNLHFNPRFHESVIVCNSRNWGQEQRDKHMCFSPGSEVKFTVTFENDGFKVKLPDGHQLTFPNRLGHSHLSYLGVQGGLKVSSFKIE
**Q.** Which results are given for B1?
**A.** glycan array binding signal (z-score) [1]: -0.276; glycan array binding signal (z-score) [2]: 0.051; glycan array binding signal (z-score) [3]: -0.317; glycan array binding signal (z-score) [4]: 0.189; glycan array binding signal (z-score) [5]: 0.196; glycan array binding signal (z-score) [6]: 0.152; glycan array binding signal (z-score) [7]: -0.078; glycan array binding signal (z-score) [8]: -0.284; glycan array binding signal (z-score) [9]: -0.171; glycan array binding signal (z-score) [10]: -0.342; glycan array binding signal (z-score) [11]: -0.079; glycan array binding signal (z-score) [12]: -0.007; glycan array binding signal (z-score) [13]: 0.097; glycan array binding signal (z-score) [14]: -0.034; glycan array binding signal (z-score) [15]: 1.7; glycan array binding signal (z-score) [16]: -0.154; glycan array binding signal (z-score) [17]: -0.457; glycan array binding signal (z-score) [18]: 0.025; glycan array binding signal (z-score) [19]: -0.068; glycan array binding signal (z-score) [20]: -0.178; glycan array binding signal (z-score) [21]: 0.085; glycan array binding signal (z-score) [22]: -0.207; glycan array binding signal (z-score) [23]: -0.2; glycan array binding signal (z-score) [24]: 0.307; glycan array binding signal (z-score) [25]: -0.339; glycan array binding signal (z-score) [26]: 0.365; glycan array binding signal (z-score) [27]: -0.344; glycan array binding signal (z-score) [28]: -0.079; glycan array binding signal (z-score) [29]: -0.068; glycan array binding signal (z-score) [30]: 0.131; glycan array binding signal (z-score) [31]: -0.112; glycan array binding signal (z-score) [32]: -0.029; glycan array binding signal (z-score) [33]: -0.255; glycan array binding signal (z-score) [34]: -0.102; glycan array binding signal (z-score) [35]: 0.122; glycan array binding signal (z-score) [36]: 0.472; glycan array binding signal (z-score) [37]: -0.166; glycan array binding signal (z-score) [38]: -0.007; glycan array binding signal (z-score) [39]: -0.362; glycan array binding signal (z-score) [40]: 2.91; glycan array binding signal (z-score) [41]: -0.164; glycan array binding signal (z-score) [42]: -0.148; glycan array binding signal (z-score) [43]: -0.223; glycan array binding signal (z-score) [44]: -0.278; glycan array binding signal (z-score) [45]: -0.171
